In US20220403025A1:

Target: L1 (DV1-GV4) antigen: soluble heterodimeric γδ TCR in leucine zipper format (TRDV1/TRGV4) (human)
Assay: DELFIA affinity ranking with 100 nM biotinylated L1

Chain of L1 (DV1-GV4) antigen: soluble heterodimeric γδ TCR in leucine zipper format (TRDV1/TRGV4) (human) (main, as listed by the source): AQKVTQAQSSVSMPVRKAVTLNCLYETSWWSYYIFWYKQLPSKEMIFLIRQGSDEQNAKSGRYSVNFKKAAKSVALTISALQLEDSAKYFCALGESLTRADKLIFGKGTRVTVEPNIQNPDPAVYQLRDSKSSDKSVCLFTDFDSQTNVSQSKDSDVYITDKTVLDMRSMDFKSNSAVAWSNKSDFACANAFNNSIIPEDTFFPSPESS

B1: 1245_P01_G06 (scFv) (scFv)
scFv: QVQLVESGGGLVKPGGSLRLSCAASGFTFSDYYMSWIRQAPGKGLEWVSYISSSGSTIYYADSVKGRFTISRDNAKNSLYLQMNSLRAEDTAVYYCARHSWNDAFDVWGQGTLVTVSSGGGGSGGGGSGGGAS[about 100 residues not printed]
A DELFIA signal, 100 nM L1 of 22500 was found for B1 in this work.
